Measurements taken from PubChem BioAssay AID504706 (National Center for Advancing Translational Sciences (NCATS), 2011).
Screen size: about 320,000 compounds; about 200 (0.062%) were called active. Inconclusive results, whose numbers are uncertain, are shown with a selection of clear calls. The call rests on the fitted dose curve; in most records, active means well fitted activation curve with a large enough effect; inconclusive means small, poorly fitted or top-dose-only effect; inactive means no such curve, though single readings can be large or run the other way. Potencies of inconclusive entries are left out as doubtful fits.

Assay: qHTS assay for re-activators of p53 using a Luc reporter; further: nearly all actives have a fitted effect of over 45% in size
Conditions: H1299 p53-A138V BP100-luciferase reporter, luminescence, 24 h; series mostly up to 92.2 µM
Procedure, shortened: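 p53-null H1299 cells stably carrying temperature-sensitive p53-A138V and a BP100-luciferase reporter were pinned with compounds (4-point, 1:5 series) and held 24 hrs at 37 deg C. Luminescence was read 10 min after detection reagent.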
Potency means the concentration at half of the fitted maximal effect; tags describe the fitted curve by direction and shape.

| Structure (SMILES) | Potency |
| --- | --- |
| Cc1ccc(OC(C)C(=O)Nc2ccc(S(=O)(=O)Nc3cc(C)on3)cc2)cc1 (stereo unspecified) | inactive |
| O=C(NCc1ccc(F)cc1)C(=O)Nc1nc(C23CC4CC(CC(C4)C2)C3)cs1 | inactive |
| O=C(Nc1ccc2c(c1)CN(Cc1ccc(CO)o1)CC2)c1ccc(C(F)(F)F)cc1 | inconclusive [activator, partial curve, poor fit] |
| COc1ccccc1Nc1nn2c(=O)c3ccc(C(=O)N4CCC(C)CC4)cc3nc2s1 | inactive |
| Cc1ccc2c(CN3CC(C)CC(C)C3)cc(=O)oc2c1 (stereo unspecified) | inactive |
| COc1ccc(CNC(=S)Nc2ccc3nc(N4CCN(C)CC4)cc(C)c3c2)cc1 | inconclusive [activator, partial curve, poor fit] |
| Cc1ccc(N=Cc2cccc(O)c2O)c(C)c1 | inactive |
| Cc1ccc(N(C(C)C(=O)O)S(=O)(=O)c2c(C)n[nH]c2C)cc1 (stereo unspecified) | inconclusive [activator, partial curve, poor fit] |
| CCN(CC)c1ccc(N=Cc2cc(Br)ccc2O)cc1 | inactive |
| O=C(COC(=O)c1ccc(Br)o1)Nc1ncc([N+](=O)[O-])s1 | inconclusive [activator, partial curve, poor fit] |
| Cc1cccc(CSc2nnc(N)n2-c2ccccc2)c1 | inactive |
| Cc1cc(OCc2ccc(C(=O)n3cccn3)o2)ccc1Cl | inconclusive [activator, partial curve, poor fit] |
| C=CCn1c(CCc2cc(C(C)(C)C)c(O)c(C(C)(C)C)c2)n[nH]c1=S | inactive |
| COc1cccc(C#Cc2c(CO)[nH]c3ccccc23)c1 | inconclusive [activator, single point] |
| CCOC(=O)c1ccccc1NC(=O)N[C@@H](C)C(=O)OC | inactive |
| CCc1ccc(C(=O)CSc2nnc(C3CC3)n2C2CC2)cc1 | inconclusive [activator, partial curve, poor fit] |
| Cc1ccc(NC(=O)CSc2nnc3c(n2)[nH]c2ccccc23)cc1 | inactive |
| COc1ccc(C(=O)/C=C/c2ccccc2C(F)(F)F)cc1 | inconclusive [activator, single point] |
| O=C(NC(=S)NNS(=O)(=O)c1ccccc1)c1cccnc1 | inactive |
| O=C(Nc1cccnc1)c1cc([N+](=O)[O-])ccc1Cl | inconclusive [activator, partial curve, poor fit] |
| Cc1ccc(Nc2nnc(SCC(=O)NCCN3C(=O)CSC3=O)s2)cc1 | inconclusive [activator, partial curve, poor fit] |
| COc1ccc(NC(=O)/C(=C/c2ccc3c(c2)OCO3)NC(C)=O)cc1 | inconclusive [activator, partial curve, poor fit] |
| Cc1ccc(NC(=O)NCCCN2CCCC2=O)cc1C | inconclusive [activator, partial curve, poor fit] |

| Structure (SMILES) | Potency |
| --- | --- |
| CCn1c(SCC(=O)c2ccc(Cl)cc2)nnc1-c1ccoc1C | inconclusive [activator, partial curve, poor fit] |
| CC(=O)N(CC1CCCO1)c1nnc(-c2cnccn2)s1 (stereo unspecified) | inconclusive [activator, single point] |
| Cc1occc(=O)c1OC(=O)Nc1ccc(Cl)c(Cl)c1 | inactive |
| CCN1Cc2c(cc(OC)c(OC)c2OC)-c2ccccc2S1(=O)=O | inactive |
| COc1ccc(/C=C/C(=O)Nn2cnnc2)cc1 | inconclusive [activator, partial curve, poor fit] |
| N#C/C(=C\c1ccc(Oc2ccc(C(F)(F)F)cc2[N+](=O)[O-])cc1)c1nc2ccccc2[nH]1 | inactive |
| O=C(Nc1nnc(S(=O)(=O)N2CCN(c3ccc(F)cc3)CC2)s1)c1ccccc1 | inconclusive [activator, single point] |
| O=C(/C=C/c1ccccc1)n1cnnc1SC/C=C/c1ccccc1 | inconclusive [activator, single point] |
| COC(=O)CSc1nc(C)c(C(=O)Nc2ccccc2C)c(-c2ccc(Cl)cc2)c1C#N | inconclusive [activator, full curve, poor fit] |
| O=C(O)CCc1nn2c3ccccc3n(CCN3CCCCC3)c2nc1=O | inactive |
| O=C1SC(c2ccccc2)=C/C1=C\N1CCCCC1 | inactive |
| O=Cc1ccc(OCc2ccc3ccccc3c2)cc1 | inconclusive [activator, full curve, poor fit] |
| COc1ccc(-c2cc3ccc(OCC(C)=O)cc3oc2=O)cc1OC | inconclusive [activator, partial curve, poor fit] |
| Cc1ccc2c(c1)CCCN2C(=O)c1ccc2c(c1)OCO2 | inactive |
| COc1ccccc1NC(=O)Nc1nc(CC(=O)Nc2ccc(F)cc2)cs1 | inactive |
| CC12CCC(C/C1=N\N=C1\NC(=O)/C(=C\c3ccc(Cl)cc3)S1)C2(C)C (stereo unspecified) | inconclusive [activator, partial curve] |
| CCn1c(=O)cc(SCC(=O)NCc2ccco2)c2ccccc21 | inconclusive [activator, full curve] |
| O=C(COC(=O)c1cc2ccccc2oc1=O)Nc1cccc(S(=O)(=O)N2CCCCCC2)c1 | inconclusive [activator, partial curve, poor fit] |
| O=[N+]([O-])c1ccccc1/C=N/OCc1ccccc1 | inconclusive [activator, full curve] |
| COc1cc2c3nnc(-c4ccc(F)cc4)c-3cn(Cc3ccccc3F)c2cc1OC | inconclusive [activator, single point] |
| Cc1[nH]nc(SCC(=O)N2CCCCCC2)c1[N+](=O)[O-] | inactive |
| Cc1nnc(CN(C)C(=O)c2cc(COc3ccc(F)cc3Cl)on2)o1 | inconclusive [activator, partial curve, poor fit] |
| CC(C)C(=O)Nc1nc(-c2ccccc2)ns1 | inconclusive [activator, full curve, poor fit] |
